The text below walks through data of PubChem BioAssay AID1240 (Sanford-Burnham Center for Chemical Genomics, 2008).

Among all 50,000 compounds or so, about 800 (1.6%) showed an effect of 50% or more. Some of the results follow.

For the test, the target named is Bcl-2-like protein 10 (Homo sapiens) (UniProt Q9HD36). Description: TR3 peptide-Bcl-B binding displacers, biochemical primary FP assay, phenotype converters (AID 1240).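 Note: 0% = Bcl-B with tracer peptide and DMSO and 100% = tracer peptide lacking Bcl-B.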 The conditions noted are these: GST-Bcl-B / FITC-TR3 peptide fluorescence polarization; stronger effect = higher value; compound at 3.75 mg/L. A general note: Polarisation of emitted light reports the rotation of a fluorescent probe.
UniProt Q9HD36, sequence (Q9HD36 whole entry, looked up): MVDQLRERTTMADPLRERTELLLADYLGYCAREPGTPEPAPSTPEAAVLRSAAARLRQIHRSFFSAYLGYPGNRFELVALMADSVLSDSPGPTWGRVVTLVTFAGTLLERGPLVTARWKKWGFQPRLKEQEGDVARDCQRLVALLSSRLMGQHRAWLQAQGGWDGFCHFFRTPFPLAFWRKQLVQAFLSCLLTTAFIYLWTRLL
For the compound `Cc1cc(C)n2c(SCCc3ccccc3)nnc2n1`, the displacement is -17.7%. Under `COc1cccc(OC)c1OCCOCCOc1ncnc2ccccc12` stands -12.7%; under `CCc1ccccc1NC(=O)/C(C#N)=C/c1cn(CC(=O)Nc2ccccc2)c2ccccc12`, -26.1%; under `O=C(Nc1ccc2ccccc2c1)c1ccccc1C(F)(F)F`, -2%. Under `Cc1cc(C=O)c(C)n1-c1ccc2ccccc2c1` stands 7.4%; under `COCCCNC(=O)C(=O)Nc1ccc(OC)c(Cl)c1`, 13.1%. `COc1ccc(/C=C(\C#N)c2nc(-c3ccc(C)cc3)cs2)cc1`: the displacement came to 4.5%. As for `COC(=O)C1=C(C)N=c2s/c(=C\c3ccccc3Cl)c(=O)n2C1c1cccs1` (stereo not drawn), the displacement was determined as 84.9%. As for `N#C/C(=C\c1ccc(-c2ccc(C(=O)O)cc2)o1)C(=O)NCc1ccco1`, the displacement is -27.8%. The result for `O=C1CCCC2=C1C(c1ccc(Cl)cc1Cl)Nc1ccccc1N2` (stereo not drawn) reads -3.3%; that for `CCCOC(=O)c1c(NC(=O)/C=C/C(=O)O)sc2c1CCCC2`, -9.1%; that for `C=CCN1C(=O)/C(=C\c2ccc(-c3cccc(C(=O)O)c3)o2)C(=O)NC1=S`, -50.7%. For `COc1ccc(C=NNC(=O)Cn2nnc3ccccc32)c(OC)c1`, the displacement was -1.3%. Regarding `CC(=O)Nc1cccc(NC(=O)c2ccc(C)cc2)c1`, the displacement worked out at 3.2%.

Turning to `COC(=O)C1=C(C)NC2=C(C(=O)CCC2)C1c1ccc2c(c1)OCO2` (stereo not drawn), the displacement came to 10.5%.

`O=C1C(=Cc2ccc(I)o2)C(=O)c2ccccc21`: the displacement came to 37.1%. Regarding `COc1ccccc1CNC(=O)c1ccc(F)cc1`, the displacement was -4.4%. As for `COCCCNC(=O)/C(=C/c1ccc(-c2ccc(Br)cc2)o1)NC(=O)c1ccccc1`, the displacement is -6.6%. The result for `COc1ccc(OC)c(CNCc2ccc3c(c2)OCO3)c1` reads -0.1%; that for `COc1ccc(C=O)cc1OCc1ccccc1`, 13.9%; that for `Cc1cccc(OCC(=O)O/N=C(\N)Cc2ccc([N+](=O)[O-])cc2)c1`, 1.8%.

`Cn1c(SCC(=O)Nc2cccc([N+](=O)[O-])c2)nc2ccccc21`: the displacement is -1.5%. As to `O=C(NN1C(=O)C2CCCCC2C1=O)c1ccc(O)cc1` (stereo not drawn), the displacement is -3.6%. For the compound `C=CCNC(=S)Nc1ccccc1NC(=S)NCC=C`, the displacement is -6.5%. In the case of `O=C(COc1ccc(Cl)cc1)NCc1ccccn1`, the displacement came out at 5.1%. Under `CCOC(=O)c1ccc(NC(=O)c2cccc([N+](=O)[O-])c2C)cc1` stands 10.1%; under `Cc1ccc(S(=O)(=O)N(Cc2ccccc2)c2ccccc2C(=O)NCC(C)C)cc1`, -0.2%; under `Cc1nc2cc(-c3cccc(Cl)c3)[nH]n2c(=O)c1Cl`, -0.7%.

Regarding `COc1cc2cc(=O)n(Cc3ccccc3)c(C)c2cc1OC`, the displacement was determined as 28.3%.

For `CC(C)(C)c1ccc(S(=O)(=O)N2CCCC2C(=O)O)cc1` (stereo not drawn), the displacement was -0.9%. Consider `COc1ccc(CCNC(=O)CCc2ccccc2)cc1OC`, for which the displacement is 3.8%. With `COc1ccc(NC(=O)c2ccc(CN3CCN(Cc4ccccc4)CC3)cc2)cc1`, the displacement is -1.5%. Consider `O=C1Oc2ccccc2C(=O)/C1=C/c1ccccc1O`, for which the displacement is 4.4%. Under `COC(=O)C1=C(C)N=c2s/c(=C\c3cccc([N+](=O)[O-])c3)c(=O)n2C1c1ccc(OC)cc1` (stereo not drawn) stands 1.2%; under `COc1ccc(OC)c(N(CC(=O)NCC(C)C)S(C)(=O)=O)c1`, 6.4%. For the compound `O=C(c1cc2ccccc2oc1=O)N1CCSC1c1ccc(Br)cc1` (stereo not drawn), the displacement was 10.5%. Turning to `COc1ccc(N(CC(=O)Nc2cccc(Br)c2)S(C)(=O)=O)cc1Cl`, the displacement was -0.1%. Regarding `CCOc1ccc(N2C(=O)/C(=C/c3ccc(C(C)C)cc3)C(=O)NC2=S)cc1`, the displacement was -7.8%.

With `COc1ccc(C(=O)Nc2ccccc2)cc1NC(=O)c1cccc(F)c1`, the displacement was 8.7%. For the compound `CC(SC12CC3CC(CC(C3)C1)C2)C(=O)O` (stereo not drawn), the displacement was found to be 13.9%. Consider `CC1CCc2c(sc(NC(=O)c3cccnc3)c2C#N)C1` (stereo not drawn), for which the displacement was -3%. As for `COc1ccc(S(=O)(=O)N2CCN(S(=O)(=O)c3ccccc3)CC2)cc1`, the displacement is -6.1%. Under `COC(=O)CN1C(=O)/C(=C/c2cc(OC)ccc2OC)SC1=S` stands -14.6%.

Take `CCOc1ccc(C(=O)Nc2sc(C)c(C)c2C(N)=O)cc1`: the displacement is 29.6%. Regarding `Cc1cc(C)cc(N2C(=O)CC(Sc3ncn[nH]3)C2=O)c1` (stereo not drawn), the displacement was -10.4%. For the compound `CCOn1c(=O)c(=O)n(OCc2ccccc2)c2ccccc21`, the displacement was found to be 18.9%. The result for `COCCCNC(=O)COc1ccc(Br)c(C)c1` reads -6.7%; that for `O=C(N/N=C\c1cccc(Cl)c1Cl)c1cnccn1`, 1.5%; that for `O=C(/C=C/c1ccco1)Nc1ccc(Cl)cc1Cl`, -14.6%. As for `CCOC(=O)c1c(NC(=O)C(CC)Oc2ccccc2)sc(C(=O)N(CC)CC)c1C` (stereo not drawn), the displacement was -3%. As for `CC(C)CCC1(C)NC(=S)N(c2ccc(Cl)cc2)N1` (stereo not drawn), the displacement is -11.9%. Under `CCc1ccccc1N(CC(=O)Nc1ccccc1C)S(C)(=O)=O` stands 2.8%. On to `CC(C)(O)C#Cc1ccc(C2C3=C(CC(C)(C)CC3=O)OC3=C2C(=O)CC(C)(C)C3)cc1`, for which the displacement was -7.4%. As for `COc1ccc(/C=C/C(=O)Nc2ccc3nn(-c4ccc(F)cc4)nc3c2)cc1`, the displacement amounted to 11.5%. In the case of `Cc1ccc(S(=O)(=O)N(CC(=O)N2CCN(c3ccccc3)CC2)c2ccccc2C)cc1`, the displacement is 0.1%. Consider `CCOC(=O)C1=C(c2ccccc2)NC(=S)NC1c1ccccc1` (stereo not drawn), for which the displacement was 17.4%.

Consider `O=C1c2cccc([N+](=O)[O-])c2C(=O)N1CC(=O)N1c2ccccc2Sc2ccc(C(F)(F)F)cc21`, for which the displacement is 6.3%. Take `O=C(Nc1ccc2c(c1)oc1ccccc12)c1ccc(Br)o1`: the displacement came out at 19%. Take `CCCCOC(=O)c1cccc(NC(=S)NC(=O)c2ccccc2Cl)c1`: the displacement is -2%.

With `O=C(NCCCNc1ccc(C(F)(F)F)cc1[N+](=O)[O-])c1ccc(Cl)cc1`, the displacement is -8%. `Cc1ccc2nsnc2c1NC(=O)COc1ccc(Br)cc1`: the displacement was 22.3%. The result for `Cc1ccc(NC(=O)C(Cl)(Cl)C(=O)Nc2ccc(C)cc2)cc1` reads 11.1%. The result for `CN(C)c1cccc(C(=O)Nc2cccc(Cl)c2)c1` reads 7.8%.

Turning to `O=C(NCCC(=O)N1CCNC1=O)OCc1ccccc1`, the displacement came to 3.9%. With `CCC(Oc1ccccc1)C(=O)Nc1c(C)n(C)n(-c2ccccc2)c1=O` (stereo not drawn), the displacement came out at 0.1%.

`COc1ccc(CN2CCN(C(=O)c3cccc(Cl)c3)CC2)cc1Br`: the displacement is -7.2%.

With `O=C(CCN1C(=O)/C(=C/c2ccc(F)cc2)SC1=S)Nc1cc([N+](=O)[O-])ccc1O`, the displacement is 25.6%. On to `CC1=C(C(=O)Nc2cc(Cl)ccc2C)C(c2ccccc2Cl)NC(=S)N1` (stereo not drawn), for which the displacement stood at 6.1%. For `O=C(CC1Nc2ccccc2NC1=O)Nc1ccc(O)cc1` (stereo not drawn), the displacement turned out to be 12.6%. Consider `CCCCOc1cccc(C(=O)Nc2cccc(-c3nc4ncccc4o3)c2)c1`, for which the displacement amounted to 15.2%.

Take `Cc1cc(C=C2C(=O)NC(=O)NC2=O)c(C)n1-c1cccc([N+](=O)[O-])c1`: the displacement came out at 5.2%.

Consider `COc1ccc(Br)cc1CN1CCN(Cc2ccc3c(c2)OCO3)CC1`, for which the displacement was -7.3%. Under `CC1CCCCN1CC#CC(O)(c1ccccc1)c1ccccc1` (stereo not drawn) stands -5.7%; under `CC1(c2ccccc2)CC(O)CC(c2ccccc2)N1` (stereo not drawn), 13%; under `Cc1cc(NC(=O)c2ccc(C(C)(C)C)cc2)ccc1NC(=O)c1ccccc1`, -10.3%. As to `O=C(O)CCN1C(=O)/C(=C/c2ccccc2Cl)SC1=S`, the displacement turned out to be 5.7%. Consider `CCCOc1ccc(/C=C/C(=O)Nc2c(C)cccc2C(C)C)cc1OC`, for which the displacement is -3.1%. `CCOc1cc(/C=C2/SC(=S)N(CC)C2=O)cc(Br)c1OCCOc1cccc(OC)c1`: the displacement worked out at 92.3%.

For `Cc1sc(NC(=O)c2ccc3c(c2)OCO3)c(C(N)=O)c1C`, the displacement is -3.3%.

As for `O=C1OC(/C=C/c2ccccc2)=NC/1=C/c1ccc(-c2ccc3c(c2)C(=O)NC3=O)o1`, the displacement is -8%. For the compound `CCOC(=O)c1sc(NC(=O)CCOc2ccccc2)c(C(=O)OCC)c1C`, the displacement was determined as 2.2%.

With `COc1ccc(/C=N/Nc2nc(N3CCOCC3)nc(N3CCOCC3)n2)cc1`, the displacement came out at 7.7%. Regarding `O=C1CC(c2ccccc2)Sc2nc3ccccc3n21` (stereo not drawn), the displacement is 4%. For the compound `CNCC(=O)C12CC3CCC(CC(C3)C1)C2`, the displacement is -9.5%. As to `O=C(O)c1ccc(CNC(=S)Nc2ccccc2)cc1`, the displacement is -7.9%.

`Fc1ccc(-c2noc(-c3ccccc3Cl)n2)cc1`: the displacement was -5.3%. Turning to `Cc1cc(C)n(-c2nc(Nc3cccc(C(F)(F)F)c3)nc(-n3nc(C)cc3C)n2)n1`, the displacement was determined as 11.5%. As for `O=C(NC(=S)Nc1ccc(I)cc1)c1ccco1`, the displacement was -1.7%. Under `CCN1C(=O)/C(=C2\SC(=O)N(Cc3ccccc3)C2=O)c2ccccc21` stands -10.9%; under `COCCOC(=O)c1c(C)oc2ccc(OCC(=O)c3ccc(Br)cc3)cc12`, 11.3%; under `Cc1cc(C)c(C(=O)Nc2ccccc2C(N)=O)c(C)c1`, 7.3%. With `COc1ccccc1N(CC(=O)Nc1ccc(C(C)C)cc1)S(=O)(=O)c1ccccc1`, the displacement is 4%. Under `CC(NC(=O)CSc1ncccn1)c1ccccc1` (stereo not drawn) stands 4.5%. `C/C=N/Nc1nnc2c(n1)[nH]c1ccccc12`: the displacement was 19%. With `COc1nc(NC(C)(C)C)nc(OC)n1`, the displacement is -9.8%. The result for `CC1=N/C(=C/c2ccc(OCc3ccc(Cl)cc3)cc2)C(=O)O1` reads 11.8%. Under `O=C(CCC1CCCCC1)NCCN1CCOCC1` stands 0.5%. For `C/C(CC(O)c1ccc2ccccc2n1)=N\O` (stereo not drawn), the displacement was 11.1%. For `Cc1cc(C)nc(SCC(=O)Nc2ccccc2Oc2ccccc2)n1`, the displacement amounted to 1%. `Cn1cc(C=C2C(=O)NC(=S)NC2=O)c2ccccc21`: the displacement is 8.8%.

In the case of `COCC(C)(C)NS(=O)(=O)c1ccccc1`, the displacement amounted to 7.1%. For the compound `CSc1ccc(/C=C(/NC(=O)c2ccccc2)c2nc3ccccc3[nH]2)cc1`, the displacement stood at 4.1%. Take `O=C(Nc1ccc(Br)cc1)c1ccccc1[N+](=O)[O-]`: the displacement stood at 7.3%. Under `COc1ccc(NC(=O)c2cnccn2)c(OC)c1` stands 44.1%. On to `CCOC(=O)CCCSc1nc2sc(C)c(C)c2c(=O)[nH]1`, for which the displacement was -7.2%. For `Cc1cccc(C(=O)Nc2nc(-c3ccc(Br)cc3)cs2)c1`, the displacement was -7.4%. For `O=C(Nc1cccc(Cl)c1)Nc1nnc(Cc2ccc(Cl)cc2Cl)s1`, the displacement is 18.3%. The result for `O=C(Nc1ccccc1[N+](=O)[O-])c1ccc(Br)o1` reads 1.8%. For `CCOC(=O)c1ccc(N2C(=O)C=CC2=O)cc1`, the displacement was -9.6%. Under `CC1=C(C(=O)OCc2ccccc2)C(c2ccccc2Cl)CC(=O)N1` (stereo not drawn) stands -8.8%; under `CCOc1ccc(NC(=O)c2sc3ccccc3c2Cl)c([N+](=O)[O-])c1`, 6.5%; under `N#C/C(=C(/O)C(Cl)(Cl)Cl)c1nc2ccccc2[nH]1`, -5.5%. On to `COc1ccc(/C=N/Nc2nc(-c3ccc(C)cc3)nc3ccccc23)c(OC)c1`, for which the displacement worked out at 17.3%.
